Read counts are not given, so values of variants with three or more changes are uncertain.
B1: CPEB3 Ribozyme (parent)
chain: UAACAGGGGGCCACAGCAGAAGCGUUCACGUCGCAGCCCCUGUCAGAUUCUGGUGAAUCUGCGAAUUCUGCUGUAUAUCUC

Variants of: B1
Assay: self-cleavage, relative activity (ratio to wild type); higher = more cleavage; in vitro, sequencing
How it was run: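 After error-prone PCR and barcoding, CPEB3 ribozyme mutant libraries were transcribed with T7 RNA polymerase at 37°C for 5 hours, then given 15 min with DNase I before an EDTA stop, and they cleaved during both steps. Reverse transcription with template switching preceded Illumina sequencing. Relative activity divides a variant's cleaved/total read fraction by the unmutated ribozyme's. At least 5 reads were required per variant, and three batches were averaged.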

Row | Variant | self-cleavage
1 | UAACAGGGGGCCACAGCUGAAGCGUUCACGUCGCGGCCCUGGUCAGAUUCUGGUGUAUCUGCGAAAUCUGCUGUAUACCUC [A18U A35G C40U U41G A56U U66A U78C] | 0.05
2 | UAACAGGGGGCCACAGCUGAAGCGUUCACGUCGCGGCCCCUGUCAUAUUCUGGUGAAUCCGCGAGUUCGGCUGUAUAUCUC [A18U A35G G46U U60C A65G U69G] | 0.1
3 | UAACAGGGGGCCACAGCUGAAGCGUUCACGUCGCGGCCCCCGUCAGAUUCUGGAGAAUCUGCGAAUACUGCUGUAUAUCUC [A18U A35G U41C U54A U67A] | 0.41
4 | UAACAGGGGGCCACAGCUGAAGCGUUCACGUCGCGGCCCCUGCCAGAUUCUGGCGAAUCUGCGAAUUCUGCUGUAUAUCUC [A18U A35G U43C U54C] | 0.39
5 | UAACAGGGGGCCACAGCUGAAGCGUUCACGUCGCUGCCCCUGUCGGAUUCUGGUGAAUCUGCGAAUUCUGCUGGAUAUCCC [A18U A35U A45G U74G U80C] | 0.13
6 | UAACAGGGGGCCACAGCUGAAGCGUUCACGUCGCUGCCCCUGUCAGAUUCUGGUGAGUAUGCGAAUUCUGCUGUAUAUCUC [A18U A35U A57G C59A] | 0.11
7 | UAACAGGGGGCCACAGCUGAAGCGUUCACGUCGCUGCCCCUGUCAGACUCUGGUGAAUCUGCGAAUUCUGCUGUGUAUCUC [A18U A35U U48C A75G] | 0.03
8 | UAACAGGGGGCCACAGCUGAAGCGUUCACGUCGCAGCCCCUGUCGGAUUCUGGUGAAUCUGCGAAUUCUGUUGUAUAUCUC [A18U A45G C71U] | 0.07
9 | UAACAGGGGGCCACAGCUGAAGCGUUCACGUCGCAGCCCCUGUCGGACUCUGGUGAAUCCGCGAAUUCUGCAGUAUAUCUC [A18U A45G U48C U60C U72A] | 0.07
10 | UAACAGGGGGCCACAGCUGAAGCGUUCACGUCGCAGCCCCUGUCUGGUUCUGGUGAAUCUGCGAAUUCUGCUGUAUAUCUC [A18U A45U A47G] | 0.17
11 | UAACAGGGGGCCACAGCUGAAGCGUUCACGUCGCAGCCCCUGUCUGAUCCUGGUGGAUCUGCGAAUUCUGCUGUAUAUCUC [A18U A45U U49C A56G] | 0.16
12 | UAACAGGGGGCCACAGCUGAAGCGUUCACGUCGCAGCCCCUGUCAGGUUCUGGUGAGUCUGCGUAUCCUGCUGUAUAUCUC [A18U A47G A57G A64U U67C] | 0.08
13 | UAACAGGGGGCCACAGCUGAAGCGUUCACGUCGCAGCCCCUGUCAGGUUCUGGUGAAUCUGCGAAUUAUGCUGUAUAUCUC [A18U A47G C68A] | 0.34
14 | UAACAGGGGGCCACAGCUGAAGCGUUCACGUCGCAGCCCCUGUCAGAUUCUGGUGGACCUGCGAGUUCAGCUGUAUAUCUC [A18U A56G U58C A65G U69A] | 0.07
15 | UAACAGGGGGCCACAGCUGAAGCGUUCACGUCGCAGCCCCUGUCAGAUUCUGGUGGAUCUGCGAAUGCUGCUGUAUAUCUC [A18U A56G U67G] | 0.21
16 | UAACAGGGGGCCACAGCUGAAGCGUUCACGUCGCAGCCCCUGUCAGAUUCUGGUGAAUCUGCGAGUACUGCUGUAUAUCUC [A18U A65G U67A] | 0.24
17 | UAACAGGGGGCCACAGCUGAAGCGUUCACGUCGCAGCCCCUGUCAGAUUCUGGUGAAUCUGCGAUCUCUGCUGUAUAUCUC [A18U A65U U66C] | 0.18

Row | Variant | self-cleavage
18 | UAACAGGGGGCCACAGCUGAAGCGUUCACGUCGCAGCCCCUGUCAGAUUCUGGUGAAUCUGCGAUUUCUGCUGUAUAUCCC [A18U A65U U80C] | 0.22
19 | UAACAGGGGGCCACAGCUGAAGUGUUCACGUCGCAGCCCCUGUCGGGUUCUGGUGAUUCUGCGAAUUCUGCUGUAUAUCUC [A18U C23U A45G A47G A57U] | 0.04
20 | UAACAGGGGGCCACAGCUGAAGUGUUCACGUCGCAGCCCCUGUCGGAUUCUGGUGAAUCUGAGAAUUCUGCUGCAUAUCUC [A18U C23U A45G C62A U74C] | 0.14
21 | UAACAGGGGGCCACAGCUGAAGUGUUCAAGUCGCGGCCCCUGUCAGAUUCUGGUGAAUCUGCGAAUUCUGCUGUGUAUCUC [A18U C23U C29A A35G A75G] | 0.17
22 | UAACAGGGGGCCACAGCUGAAGUGUUCACGUCGCAGCCCCUGUCAGAUCCUGGUGAAUCUGCGAAUUCUGCUGUAUAUCUC [A18U C23U U49C] | 0.2
23 | UAACAGGGGGCCACAGCUGAAGCGUUAACGUCGGAGCCCUUGUCAGAUUCAGGUGAAUCUGCGAAUUCUGCUGCAUAUCUC [A18U C27A C34G C40U U51A U74C] | 0.14
24 | UAACAGGGGGCCACAGCUGAAGCGUUGACGUCGCAGCCCCUGUCGGAUUCAGGUGAAUCUGCGAAUUCUGCCGUAUACUUC [A18U C27G A45G U51A U72C U78C C79U] | 0.15
25 | UAACAGGGGGCCACAGCUGAAGCGUUCAAGUCGCGGCCCCUGUCAGAUUCUGGUUCAUCUGCGAAUUCUGCUGUACAUCUC [A18U C29A A35G G55U A56C U76C] | 0.13
26 | UAACAGGGGGCCACAGCUGAAGCGUUCAAGUCGCAGCCCCUGUCAGAUUCUGGCGAUUCUGCGAAUUCAGCUGUAUACCUC [A18U C29A U54C A57U U69A U78C] | 0.1
27 | UAACAGGGGGCCACAGCUGAAGCGUUCACGUUGCAGCCCCUGGCAGAUUCUGGUGAAUCUGCGAAUUCUGCUGUAUAUCUC [A18U C32U U43G] | 0.2
28 | UAACAGGGGGCCACAGCUGAAGCGUUCACGUCGGAGCCCCUGUCAGAUUCUGGUGAAUCCGCGAAUUCUGCUGUAUAUCUA [A18U C34G U60C C81A] | 0.12
29 | UAACAGGGGGCCACAGCUGAAGCGUUCACGUCGCAGUCCCUGUCAGAUUCUGGUGAACCUGCGAAUUCCGCUGUAUAUCUC [A18U C37U U58C U69C] | 0.06
30 | UAACAGGGGGCCACAGCUGAAGCGUUCACGUCGCAGCGCCUGUCAGAUUCUGGUGAAUCUGCGAAUUCUGCUGUAUAUCCC [A18U C38G U80C] | 0.2
31 | UAACAGGGGGCCACAGCUGAAGCGUUCACGUCGCAGCCCUUGUCAGAUUCUGGUGAAUCUGCGAAUCCAGCUGUAUAUCUC [A18U C40U U67C U69A] | 0.26
32 | UAACAGGGGGCCACAGCUGAAGCGUUCACGUCGCAGCCCCUGUUAGAUUCUGGUGAAUCAGCGAAUUCUGCUGUAUAUCUC [A18U C44U U60A] | 0.28
33 | UAACAGGGGGCCACAGCUGAAGCGUUCACGUCGCAGCCCCUGUUAGAUUCUGGUGAAUCCGCGAAUUCUGCUGUAUAUCUC [A18U C44U U60C] | 0.04
34 | UAACAGGGGGCCACAGCUGAAGCGUUCACGUCGCAGCCCCUGUCAGAUUCUGGUGAAUCUGGGAAUUCGGCUGUAUAUCUC [A18U C62G U69G] | 0.19
